Screen size: about 390,000 compounds; about 17,000 (4.4%) were called active. This list was built around the results that the source calls inconclusive (neither active nor inactive); the mix of calls is not that of the screen. Calls come from the whole dose curve; as a rule, active = well fitted inhibition curve with a large enough effect; inconclusive = small, poorly fitted or top-dose-only effect; inactive = no such curve, though single readings can be large or run the other way. Potencies beside an inconclusive call are fits to weak or partial responses and may not hold up.
target: Lysine-specific demethylase 4A (Homo sapiens) (UniProt O75164); experiment: qHTS Assay for Inhibitors of JMJD2A-Tudor Domain; details: AlphaScreen JMJD2A-Tudor / H3K4me3 peptide binding; series mostly up to 114 µM; note: nearly all actives have a fitted effect of over 50% in size
Potency is the fitted concentration of half-maximal effect; tags give direction and shape of the fitted curve.

Sequence of UniProt O75164 (O75164 whole entry, looked up, the tested form may be a part): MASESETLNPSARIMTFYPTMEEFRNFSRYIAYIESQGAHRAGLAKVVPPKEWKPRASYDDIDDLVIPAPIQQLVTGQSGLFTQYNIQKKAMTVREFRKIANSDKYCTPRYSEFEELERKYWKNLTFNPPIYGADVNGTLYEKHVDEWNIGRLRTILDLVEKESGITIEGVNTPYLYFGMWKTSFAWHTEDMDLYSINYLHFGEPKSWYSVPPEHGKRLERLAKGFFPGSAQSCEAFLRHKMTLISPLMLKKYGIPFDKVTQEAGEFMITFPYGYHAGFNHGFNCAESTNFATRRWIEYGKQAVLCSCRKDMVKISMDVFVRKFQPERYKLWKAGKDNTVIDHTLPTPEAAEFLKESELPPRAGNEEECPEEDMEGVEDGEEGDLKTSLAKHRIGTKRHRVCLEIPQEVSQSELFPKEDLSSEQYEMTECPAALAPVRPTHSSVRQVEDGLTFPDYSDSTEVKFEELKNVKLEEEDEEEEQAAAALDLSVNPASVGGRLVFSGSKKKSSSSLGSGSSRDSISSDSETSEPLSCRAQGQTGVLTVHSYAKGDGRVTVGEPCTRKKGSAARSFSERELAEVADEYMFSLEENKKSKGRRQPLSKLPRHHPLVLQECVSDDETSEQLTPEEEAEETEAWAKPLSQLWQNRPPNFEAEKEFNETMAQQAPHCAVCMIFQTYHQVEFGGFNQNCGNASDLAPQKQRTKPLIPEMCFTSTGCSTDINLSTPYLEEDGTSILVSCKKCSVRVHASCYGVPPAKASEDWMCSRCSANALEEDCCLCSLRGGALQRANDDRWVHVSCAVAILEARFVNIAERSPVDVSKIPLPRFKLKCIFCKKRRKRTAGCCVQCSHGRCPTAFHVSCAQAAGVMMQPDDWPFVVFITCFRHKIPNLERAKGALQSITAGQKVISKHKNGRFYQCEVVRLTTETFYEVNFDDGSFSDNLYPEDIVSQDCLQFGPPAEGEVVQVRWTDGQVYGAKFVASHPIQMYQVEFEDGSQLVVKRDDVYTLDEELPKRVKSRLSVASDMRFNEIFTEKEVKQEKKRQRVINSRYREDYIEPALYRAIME

Potency, inconclusive:
Fc1cnc(Cl)nc1NC1CCCCC1 11.2 µM [inhibitor, partial curve, poor fit], COc1cccc(N2C(=O)C(O)=C(C(C)=O)C2c2ccc(OC)c(OC)c2)c1 (stereo not drawn) 100 µM [inhibitor, single point], COc1cc(OC)c(-n2cc(-c3ccc(OC)c(OC)c3)[nH]c2=S)cc1Cl 14.1 µM [inhibitor, single point], COc1ccccc1N1CCN(C2CCCCC2NS(=O)(=O)c2ccc(Cl)cc2)CC1 (stereo not drawn) 89.1 µM [inhibitor, single point], CCCCCn1cc2c(c1-c1ccccc1Br)c(=O)n(C)c(=O)n2C 63.1 µM [inhibitor, partial curve, poor fit], CCOc1cc(NC(=S)Nc2ccccc2OC)c(OCC)cc1NC(=O)c1ccccc1C 28.2 µM [inhibitor, partial curve, poor fit], Nc1ccccc1Sc1ccc(C(F)(F)F)cc1[N+](=O)[O-] 35.5 µM [inhibitor, partial curve], O=C(OCc1nnc(-c2ccccc2)o1)c1cc(Cl)ccc1[N+](=O)[O-] 39.8 µM [inhibitor, partial curve], CN(C)c1ccc(P(=O)(OC2CCCCC2)C(O)c2ccccn2)cc1 (stereo not drawn) 3.16 µM [inhibitor, full curve], Cc1ccc(C2C(C(=O)c3cccs3)=C(O)C(=O)N2c2cccc(C)n2)cc1 (stereo not drawn) 89.1 µM [inhibitor, single point], O=C(C1=NN[C@@H]2C(=O)N(Cc3ccccc3)C(=O)[C@H]12)c1ccc([N+](=O)[O-])cc1 50.1 µM [inhibitor, partial curve], c1ccc2cc(-c3cc4ccccn4c3)ccc2c1 89.1 µM [inhibitor, partial curve], O=C(c1cccn1-c1nnc(N2CCCCC2)s1)N1CCN(c2ccc(Cl)cc2)CC1 44.7 µM [inhibitor, full curve, poor fit], Nc1cc(-c2ccc(OC(F)(F)F)cc2)nn1-c1ccc(Cl)c(Cl)c1 28.2 µM [inhibitor, full curve, poor fit], CCn1c(C(=O)N2CCC(C(=O)N3CCN(c4ccc(OC)cc4)CC3)CC2)cc2sccc21 50.1 µM [inhibitor, partial curve], Cc1occc1-c1nnc(SCC(=O)Nc2ccccc2)n1C(C)c1ccccc1 (stereo not drawn) 79.4 µM [inhibitor, partial curve], CS(=O)(=O)C1=NSC2=NC(=O)/C(=C\c3cccn3-c3ccccc3Cl)C(=N)N21 56.2 µM [inhibitor, partial curve], CCOc1ccc(Nc2nc3c(S(=O)(=O)c4ccc(CC)cc4)nnn3c3ccc(Cl)cc23)cc1 8.91 µM [inhibitor, full curve], COc1cc(OC)cc(C(=O)NCC(=O)OCC(=O)N2CCc3ccccc32)c1 15.8 µM [inhibitor, full curve], COc1cc(NS(=O)(=O)c2ccc(Nc3nc(-c4ccccn4)cs3)cc2)nc(OC)n1 7.08 µM [inhibitor, full curve, poor fit], COc1ccccc1CNc1ccc(CNc2ncn[nH]2)cc1 56.2 µM [inhibitor, partial curve], N#CC1C(=N)Cc2ccccc2-c2ccccc21 (stereo not drawn) 50.1 µM [inhibitor, partial curve], CC[n+]1c(/C=C(\C)OC)sc2ccccc21 89.1 µM [inhibitor, single point], COc1ccc(CCNc2oc(COc3cccc(C)c3)nc2C#N)cc1OC 17.8 µM [inhibitor, full curve], O=C(NNC(=O)C1CCCCC1)c1cnccn1 0.631 µM [inhibitor, full curve, poor fit], COc1ccc(C(=O)N2CCN(c3ccc([N+](=O)[O-])c(NCCc4ccc(OC)c(OC)c4)c3)CC2)cc1 3.55 µM [inhibitor, full curve, poor fit], Cc1ccc(NC(=O)CC2C(=O)NCCN2C(=S)Nc2ccccc2)c(C)c1 (stereo not drawn) 79.4 µM [inhibitor, single point], Cc1ccccc1C(=O)N/N=C/c1ccccn1 2 µM [inhibitor, full curve, poor fit], CSCCC(NC(=O)c1ccco1)C(=O)N1CCN(C(c2ccccc2)c2ccccc2)CC1 (stereo not drawn) 44.7 µM [inhibitor, partial curve], O=C(Nc1ccc(-c2csc(Nc3cccc(C(F)(F)F)c3)n2)cc1)c1cccc(C(F)(F)F)c1 56.2 µM [inhibitor, partial curve]

Potency, active:
Cc1cc([N+](=O)[O-])cc([N+](=O)[O-])c1NCC(C)C 44.7 µM, S=c1[nH]nc(Nc2cccc3ccccc23)s1 17.8 µM, COc1ccccc1CNC(=O)CSc1ccc(-c2ccccn2)nn1 31.6 µM, c1ccc(CC2CCN(Cc3ccccn3)CC2)cc1 7.94 µM, Cn1cc(C(c2ccccn2)c2cn(C)c3ccccc23)c2ccccc21 22.4 µM

Potency, inactive:
CC(=O)c1ccc(NC(=O)C(C)n2c3ccccc3c3nc(=O)cc(C)n32)cc1 (stereo not drawn), N=c1c(C(=O)NCC2CCCO2)cc2c(=O)n3ccccc3nc2n1Cc1ccc(F)cc1 (stereo not drawn), O=C(NCc1ccc(Cl)cc1)N1CCN(Cc2ccccc2)CC1, Cc1ccc(NC(=O)CC(C(=O)O)c2ccccc2)cc1 (stereo not drawn), Cc1ccc(/C=C/C(=O)c2c(C)cc(C)[nH]c2=O)cc1, CCCN(CC(=O)Nc1ccccc1OC)C(=O)c1cc(-c2cccs2)nn1-c1ccccc1, COC(=O)c1c(C)[nH]c(C)c1-c1ccc(C)cc1, COC(=O)c1ccccc1NC(=O)CN1C(=O)c2ccccc2C1=O

From PubChem BioAssay AID504339 (National Center for Advancing Translational Sciences (NCATS), 2011)
